# Experimental data taken from PubChem BioAssay AID1347055 (National Center for Advancing Translational Sciences (NCATS), 2019).
# Among all 54,000 compounds or so, about 120 (0.22%) were called active. The shares of active, inactive and inconclusive entries below differ from those in the screen. Calls come from the whole dose curve; as a rule, active = well fitted inhibition curve with a large enough effect; inconclusive = small, poorly fitted or top-dose-only effect, or effect the other way; inactive = flat fitted curve, though single readings scatter. Potencies of inconclusive entries are left out as doubtful fits.
# Target: Fumarate hydratase, mitochondrial (Homo sapiens) (UniProt P07954)
# Sequence of UniProt P07954 (P07954 whole entry, looked up): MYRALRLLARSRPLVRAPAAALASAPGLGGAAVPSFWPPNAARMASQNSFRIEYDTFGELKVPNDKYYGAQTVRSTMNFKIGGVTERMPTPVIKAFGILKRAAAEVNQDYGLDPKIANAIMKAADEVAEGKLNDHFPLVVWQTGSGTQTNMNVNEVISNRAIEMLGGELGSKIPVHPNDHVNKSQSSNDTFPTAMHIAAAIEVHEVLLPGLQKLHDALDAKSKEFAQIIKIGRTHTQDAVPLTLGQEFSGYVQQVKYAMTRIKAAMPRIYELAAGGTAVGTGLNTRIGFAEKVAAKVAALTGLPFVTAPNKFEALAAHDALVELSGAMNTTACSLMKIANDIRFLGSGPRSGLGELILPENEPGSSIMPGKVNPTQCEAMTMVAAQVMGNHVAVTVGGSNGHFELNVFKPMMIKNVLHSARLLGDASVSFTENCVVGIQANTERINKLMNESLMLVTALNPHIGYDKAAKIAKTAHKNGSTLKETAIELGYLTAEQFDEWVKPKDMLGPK
# Assay: Identification of activators of human fumarate hydratase by quantitative high-throughput screening; note: the screen sought activators but most active calls are inhibition curves; nearly all actives have a fitted effect of over 45% in size
# Settings: FH coupled MDH/diaphorase resazurin fluorescence, 15 min; activity change, negative = inhibition: at 79.9 µM (top of the series)
# % is set by controls: 0 for no effect and ±100 for the full control effect; potency is the fitted concentration of half-maximal effect; tags give direction and shape of the fitted curve.
SMILES,"activity change, negative = inhibition",Potency
COc1ccccc1-c1nc(CNC(=O)Nc2ccccc2)c(C)o1,inactive: -3.47%,
Cc1ccc(C(=O)Nc2ccc3oc(-c4ccncc4)nc3c2)c(Cl)c1,inactive: -7.39%,
COc1cccc(NC(=O)c2ccc3nc(Cc4ccccc4)oc3c2)c1,,"inconclusive [inhibitor, single point]"
CCc1ccc(-n2c(SCc3cccc(F)c3)nc3[nH]ncc3c2=O)cc1,,"inconclusive [inhibitor, single point]"
CC(C)Cn1cc(NC(=O)NCc2ccccc2Cl)c2ccccc2c1=O,,"inconclusive [activator, single point]"
CCOC(=O)CSc1nc2ccc(NC(=O)COc3ccccc3C)cc2s1,inactive: -1.03%,
CCN(CC)CCNC(=O)COc1ccc(Cl)cc1,inactive: -4.26% [at 53.3 µM],
COc1ccc(N(C)S(=O)(=O)c2ccc3c(c2)n(C)c(=O)c(=O)n3C)cc1,,"inconclusive [inhibitor, partial curve, poor fit]"
CCOC(=O)c1cc2c(=O)n3ccccc3nc2n(Cc2ccco2)c1=NC(=O)c1ccc(F)cc1,,"inconclusive [inhibitor, single point]"
CC(=O)c1ccc(NC(=O)Cn2c(=O)oc3cc(S(=O)(=O)N4CCCCC4)ccc32)cc1,inactive: -6.98%,
C[N+]1(CC2COC(c3ccccc3)(c3ccccc3)O2)CCCCC1 (stereo not drawn),inactive: 0.324% [at 20.6 µM],
COc1cccc(-n2cc(C(=O)NCc3ccc(C)cc3)c3ccccc3c2=O)c1,,"inconclusive [inhibitor, partial curve]"
CCC(Sc1nc2ncccc2o1)C(=O)Nc1cccc(C)c1 (stereo not drawn),,"inconclusive [inhibitor, partial curve, poor fit]"
COC(=O)N[C@@H](C)CNc1nccc(-c2cn(C(C)C)nc2-c2cc(Cl)cc(NS(C)(=O)=O)c2F)n1,inactive: -4.06%,
O=S(=O)(NCCc1csc2nc(-c3ccc(Cl)cc3)nn12)c1ccc2c(c1)OCCO2,,"inconclusive [inhibitor, single point]"
COc1cc(SC)ccc1C(=O)N1CCC(Cc2ccccc2)CC1,,"inconclusive [inhibitor, partial curve, poor fit]"
COc1ccc(C2CC(=O)N(CC(=O)Nc3ccc(C(C)=O)cc3)c3ccccc3S2)cc1OC (stereo not drawn),,"inconclusive [inhibitor, single point]"
CC#C[C@]1(O)CC[C@H]2[C@@H]3CCC4=CC(=O)CCC4=C3[C@@H](c3ccc(N(C)C)cc3)C[C@@]21C,,"inconclusive [inhibitor, partial curve]"
CN(C)CCCNc1nc(CN2CCN(C(c3ccc(Cl)cc3)c3ccc(Cl)cc3)CC2)nc2ccccc12,inactive: 0.597%,
CCCN1CCC[C@@H](c2cccc(S(C)(=O)=O)c2)C1,inactive: 9.27%,
Cc1ccc(CNC(=O)c2sc3nc(-c4ccc(F)cc4)ccc3c2N)cc1,inactive: -6.31%,

SMILES,"activity change, negative = inhibition",Potency
O=C(O)C1=CC(=C(c2ccc(O)c(C(=O)O)c2)c2ccc(O)c(C(=O)O)c2)C=CC1=O,,active: 15.8 µM
CC(C)(C)c1ccc(-c2nc(S(=O)(=O)c3ccccc3)c(N3CCOCC3)o2)cc1,,"inconclusive [inhibitor, partial curve]"
CCOc1ccc(/C=C/c2nc(C#N)c(Nc3ccc(OCC)cc3)o2)cc1,,"inconclusive [inhibitor, single point]"
Cc1ccccc1NC(=O)c1c(NC(=O)C(F)(F)F)sc2c1CCCCC2,,"inconclusive [inhibitor, partial curve]"
CCC1CCc2nc3sc(C(=O)Nc4ccc(F)c(F)c4)c(N)c3cc2C1 (stereo not drawn),inactive: 0.996%,
O=C(NCCc1ccc(Cl)cc1)c1nc(-c2cccc(F)c2)n2c1CCCCC2,,"inconclusive [inhibitor, single point]"
Cc1ccc(NC(=O)CN2C(=O)c3ccccc3Sc3ccc(C(=O)N4CCCC4)cc32)cc1,,"inconclusive [inhibitor, partial curve]"
CCOc1ccc(CCNC(=O)c2sc3ncccc3c2-n2c(C)ccc2C)cc1,,"inconclusive [inhibitor, partial curve, poor fit]"
CC(NC(=O)c1ccc2nc(Cc3ccccc3)oc2c1)c1ccccc1 (stereo not drawn),,"inconclusive [inhibitor, full curve, poor fit]"
COc1ccc(-c2cc(C(F)(F)F)nc(SCCC(=O)Nc3cccc(O)c3)n2)cc1,,"inconclusive [inhibitor, single point]"
C=CC1(C)CC=C2C(CCC3C(C)(C(=O)O)CCCC23C)C1 (stereo not drawn),inactive: -17.3%,
Cc1ccc(C)c(NC(=O)Cn2c(=O)n(Cc3ccc4c(c3)OCO4)c(=O)c3ccc(C(=O)NC4CCCCC4)cc32)c1,inactive: 7.54%,
COc1cc(CNc2ccc3[nH]c(=O)[nH]c3c2)cc(Br)c1OCc1ccc(F)cc1,,"inconclusive [inhibitor, partial curve]"
CC(Oc1ccccc1)C(=O)N1CCN(Cc2cc(=O)n3nc(-c4ccccc4Cl)sc3n2)CC1 (stereo not drawn),,"inconclusive [activator, single point]"
CCOCCCNC(=O)c1cc2c(=O)[nH]c3ccccc3c2n1C,,"inconclusive [inhibitor, single point]"
CCn1nc(C)c2c(-c3ccccc3)cc(=O)n(C(C)C(=O)NCc3ccc(C)cc3)c21 (stereo not drawn),,"inconclusive [inhibitor, single point]"
CC(=O)c1ccc(NC(=O)c2nc3ccccc3n(C)c2=O)cc1,,"inconclusive [inhibitor, partial curve]"
Cc1ccc(C)c(Nc2nc3nonc3nc2Nc2cccc(C)c2C)c1,,"inconclusive [inhibitor, full curve, poor fit]"
Cn1c(=O)c2sccc2n2c(CCCC(=O)Nc3ccc(Oc4ccc(Cl)cc4)cc3)nnc12,,"inconclusive [inhibitor, partial curve]"
Clc1ccc(C2(c3ccc(-c4cn[nH]c4)cc3)CCNCC2)cc1,,inactive
CCOC(=O)c1cc(-c2ccccc2)n(CCC(=O)Nc2nc3c(C)cccc3s2)c1C,,"inconclusive [inhibitor, partial curve, poor fit]"

SMILES,"activity change, negative = inhibition",Potency
CNS(=O)(=O)c1cc(-c2nnc(Nc3cc(C)ccc3C)c3ccccc23)ccc1C,,"inconclusive [inhibitor, partial curve, poor fit]"
CCOc1ccc(CCNC(=O)c2ccc3c(c2)nc2n3CCOC2)cc1OCC,,"inconclusive [inhibitor, partial curve]"
COc1ccc(NC(=O)CSc2nc(-c3ccccc3)[nH]c2-c2ccccc2)cc1OC,,"inconclusive [inhibitor, single point]"
O=C(CCC1CCN(Cc2ccccc2)CC1)c1ccc2c(c1)NCCCC2,,"inconclusive [activator, partial curve]"
Cc1ccc(Cn2ccnc2SCC(=O)Nc2ccccc2C(F)(F)F)cc1,inconclusive: -47.2% [inhibitor],
CC(=O)C1=C(c2ccc(Cl)c(Cl)c2)N(C(C)=O)n2cnnc2S1,,"inconclusive [activator, single point]"
Cc1cccc(C)c1-n1c(=O)c2cnc(Nc3ccc(N4CCN(C)CC4)cc3)nc2n2c3ccccc3nc12,inactive: -19.8%,
COc1cc(OC)cc(C(=O)Nc2ccc3c(c2)OCCO3)c1,inactive: -6.52%,
O=S(=O)(Nc1cccc(F)c1)c1ccc2[nH]c3c(c2c1)CCCCC3,,active: 35.5 µM
COc1ccccc1-c1nc(S(=O)(=O)c2ccccc2)c(N2CCC(C)CC2)o1,,"inconclusive [inhibitor, partial curve]"
COc1cccc(-c2nc(SCc3ccc(C)cc3)n3[nH]c(=O)cc3n2)c1,,"inconclusive [inhibitor, partial curve, poor fit]"
CCc1c(Cl)c(O)c(Cl)c(O)c1C(=O)O[C@H]1[C@H](O)[C@H](OC)[C@H](OC/C2=C\C=C\C[C@H](O)/C(C)=C\[C@H](CC)[C@@H](O[C@@H]3OC(C)(C)[C@@H](OC(=O)C(C)C)[C@H](O)[C@@H]3O)/C(C)=C/C(C)=C/C[C@@H]([C@@H](C)O)OC2=O)O[C@@H]1C,inactive: -3.08% [at 53.3 µM],
Cc1cccc(Cc2c(C)nc3nc(SCC(=O)NCc4ccc(F)cc4)nn3c2C)c1,,"inconclusive [inhibitor, partial curve]"
Cc1ccc(Cc2nc3ccccc3nc2SCC(=O)NCCc2ccccc2)cc1,inactive: 0.259%,
Cc1cc(C)c2c(=O)cc(C(=O)Nc3ccc(S(=O)(=O)Nc4onc(C)c4C)cc3)oc2c1,,"inconclusive [inhibitor, partial curve, poor fit]"
COc1cc(-c2noc(C3CC(=O)N(c4cc(C)ccc4C)C3)n2)cc(OC)c1OC (stereo not drawn),,"inconclusive [activator, partial curve, poor fit]"
CC(=O)N1CCN(c2ccc(O)cc2)CC1,,"inconclusive [inhibitor, single point]"
Cc1cc(C)c(NS(=O)(=O)c2cc(-c3cnc(C4CC4)o3)ccc2C)c(C)c1,inactive: -10.5%,
Cc1ccc(CNc2ncnc3c2cnn3-c2ccc(C)cc2C)cc1,,"inconclusive [inhibitor, partial curve, poor fit]"
COc1cc(OC)c(NC(=O)c2c(C)oc3nc(C)nc(N4CCOCC4)c23)cc1Cl,inactive: -0.214%,
Cc1ccc(CCNC(=O)c2cn(C)c3ccc(S(=O)(=O)N4CCC(C)CC4)cc3c2=O)cc1,,"inconclusive [inhibitor, single point]"
